The list shows a part of the results. The energies were worked out here from pooled read counts, against the library average; single values are noisy.
Target: T1, Pho4 (S. cerevisiae) (UniProt P07270)
T1 sequence: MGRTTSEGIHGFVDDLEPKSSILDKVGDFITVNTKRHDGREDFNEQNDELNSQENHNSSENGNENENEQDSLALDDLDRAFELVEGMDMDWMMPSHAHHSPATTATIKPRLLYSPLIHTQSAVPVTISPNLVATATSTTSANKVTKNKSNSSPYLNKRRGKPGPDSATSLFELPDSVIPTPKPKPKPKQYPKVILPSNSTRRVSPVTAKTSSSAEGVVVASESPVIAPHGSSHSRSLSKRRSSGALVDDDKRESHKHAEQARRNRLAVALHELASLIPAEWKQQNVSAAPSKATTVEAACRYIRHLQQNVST
Assay: relative binding free energy (BET-seq); higher = weaker binding
Conditions: reference: library average

Sequence	relative binding free energy [kcal/mol]
TTATTCACGTGAAGAA	0.42
TGGAACACGTGTGCAT	0
TTGACCACGTGGGTTG	-0.21
CTTTACACGTGATGGT	0.17
TGGTACACGTGTGCGG	0.06
TTTGCCACGTGCAGTT	0
GGCTTCACGTGGGCGG	0.07
AAGTGCACGTGGCGAT	-0.14
GGGGGCACGTGGAGAT	-0.08
GTTGGCACGTGTGCTC	-0.06
AGTGGCACGTGGCGGT	-0.12
AATTGCACGTGGTGCT	-0.1
TAGTGCACGTGAAAGA	0.22
TGCGGCACGTGGTCAG	-0.3
AGTAGCACGTGTCGCG	-0.05
TGTAACACGTGAGCTT	0.23
TCAGGCACGTGAGGGG	0.1
GTGCGCACGTGTAGAG	0.03
TCTGGCACGTGTAGCG	-0.07
CGTTTCACGTGGATTG	0.31
GAGTGCACGTGCAGGG	-0.04
TCTTTCACGTGTGGTA	0.28
CGCTACACGTGTGGGG	-0.06
ATACACACGTGTGGGT	-0.03
GAAAGCACGTGGTAGG	-0.19

Sequence	relative binding free energy [kcal/mol]
TATATCACGTGTGTCT	0.13
TACGTCACGTGTTAAG	0.11
ATAGGCACGTGTGTAG	-0.17
TTGTTCACGTGCTTGA	0.17
TTGATCACGTGCTTTT	0.1
TAGTACACGTGGTATA	-0.05
ATTGTCACGTGTATAT	0.15
GTGGGCACGTGATACG	-0.04
GAGGGCACGTGTGTCG	-0.05
TGATACACGTGGCGTT	-0.13
AAATGCACGTGTGTTG	0.01
TGATTCACGTGGGCCG	0.14
ATAGTCACGTGCGTTA	-0.13
TAGGTCACGTGAGGCA	0.21
ATTGTCACGTGGAGCG	-0.03
GGAAACACGTGGCGGT	-0.02
GGTCCCACGTGATGTG	0.07
GTGCTCACGTGGCTGT	0.17
AGAGGCACGTGGTCAG	-0.19
TAAGGCACGTGTTGCG	-0.25
TAAGGCACGTGGGTTT	-0.19
CGCGGCACGTGGGTAG	-0.12
GTTGGCACGTGGGTTA	-0.06
ATTTGCACGTGCGCTT	-0.15
TGTCACACGTGGGTTA	0.07

Sequence	relative binding free energy [kcal/mol]
ATGGACACGTGATTTG	0.27
GTATACACGTGACGGG	0.13
TTGGTCACGTGCGAAT	0.1
AGTAGCACGTGTGGTC	-0.1
TGATGCACGTGGCGGT	-0.07
GAAAGCACGTGCGGGA	0.08
GGTGGCACGTGATCTT	-0.07
TGAGTCACGTGGTGGG	0.08
ATATCCACGTGGGGGT	-0.23
TGACTCACGTGGCGGG	0.21
TGTGACACGTGCTCTG	0.08
TTGGACACGTGGCTAG	0.08
TAGTGCACGTGGAGGT	-0.02
GGGGCCACGTGTCTTG	-0.05
AGTCGCACGTGGCGGT	-0.13
AACAGCACGTGTGGTT	0.04
GGGAACACGTGTTAAT	0.15
TTGCGCACGTGTTGTG	-0.09
TGTTGCACGTGGAAGG	-0.01
TGGAACACGTGAGATT	0.35
TGTTCCACGTGGGATA	-0.15
GGTTGCACGTGGAATT	0.34
TGTTTCACGTGGGTAT	0.2
CGTTTCACGTGGACGG	0.22
CTGATCACGTGGGTTC	0.16

Sequence	relative binding free energy [kcal/mol]
ACAGGCACGTGTGGGT	-0.07
AGATTCACGTGGAAAG	0.37
GAATGCACGTGGTAAG	-0.03
GGTTTCACGTGCGTGT	0.33
TGATACACGTGAGGGT	0.3
TTTCGCACGTGGATGA	0.01
GCTTGCACGTGTGAGT	0
GCAGGCACGTGATAGG	-0.08
TTGTACACGTGCTTAT	-0.06
ATAGGCACGTGTAGAG	-0.03
TTGTCCACGTGGTTCG	-0.11
CGGGGCACGTGTTTTA	0.01
AGTTTCACGTGGATCG	0.28
TTAAACACGTGTCATG	0.12
TCGTGCACGTGAGTAT	0.15
GTATGCACGTGGGCGT	-0.1
GGGTTCACGTGTTCTT	0.22
AAGGACACGTGATTTG	0.25
TTAGACACGTGGTTGG	0.07
CTAATCACGTGAGGGT	0.22
GGCAGCACGTGTTAGG	0.01
ATATGCACGTGTCGTG	-0.09
TTGAGCACGTGAGTGG	0.12
GTGTTCACGTGACGGA	0.43
GGTCACACGTGTTTCG	0.24

Sequence	relative binding free energy [kcal/mol]
GAATACACGTGTAGAG	0.24
GTTATCACGTGTGTCT	0.22
GGGGCCACGTGGGCTG	-0.16
TTTGTCACGTGAAAGG	0.39
GAGTTCACGTGAGGCT	0.5
TCGAACACGTGGGGTG	-0.21
TGCTTCACGTGCGTTT	0.13
CATGGCACGTGGTATG	-0.22
AGTCGCACGTGGGCTG	-0.27
GATTGCACGTGGGAGT	-0.04
AGTATCACGTGATCGG	0.09
TGGATCACGTGGGGAA	0.11
TGGCACACGTGGCGGA	-0.02
GTGTGCACGTGAGTAC	0.15
GGCAGCACGTGAGCGG	0.15
GGATTCACGTGGTTGT	0.3
TAATTCACGTGTCAGG	0.1
TATGGCACGTGTCTGT	-0.07
GGTCTCACGTGGAATG	0.26
TTATGCACGTGGTGCT	-0.16
TTCAGCACGTGATAGG	-0.09
TGTAACACGTGGGTAT	-0.13
TATCGCACGTGGGGTA	-0.26
TTTTGCACGTGCAGTT	-0.11
TTTGGCACGTGAAAGC	0.2

Sequence	relative binding free energy [kcal/mol]
TAAAGCACGTGGTATT	-0.31
GATGTCACGTGATAGG	0.17
ATAGGCACGTGTGCGC	-0.09
TGAAGCACGTGGTAGT	-0.12
ACAGGCACGTGGAGGG	-0.12
TCGGTCACGTGGGTAT	-0.06
TTAAACACGTGCTGGT	-0.2
AGTATCACGTGCAATT	0.32
GGGGCCACGTGGAATA	0.14
TTGGTCACGTGTGGGC	0.12
ACTGTCACGTGTTGAG	0.16
GAGGCCACGTGAAGGG	0.19
GGTGTCACGTGGAACT	0.24
TTGAACACGTGAGGGT	0.34
TGGTACACGTGAATTA	0.15
TAGTTCACGTGTTGGC	0.24
AGTATCACGTGGAGGC	0.12
CGATTCACGTGGTGTT	0.21
GTTAGCACGTGCTCGT	-0.11
CAGGGCACGTGTATGG	-0.12
TTTCTCACGTGTAATG	0.37
